PubChem BioAssay AID1259400 (National Center for Advancing Translational Sciences (NCATS), 2018)
Among all 350,000 compounds or so, about 2,100 (0.6%) were called active. This list was built around the results that the source calls inconclusive (neither active nor inactive); the mix of calls is not that of the screen.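 Rule for the calls: active = activity change of -60% or lower, but not beyond a set lower limit; inconclusive = change between -60% and -40%, or beyond the set limit; inactive = change above -40%.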

biological target: Relaxin receptor 1 (Homo sapiens) (UniProt Q9HBX9); test: qHTS Assay for Antagonists of the Relaxin Receptor RXFP1; conditions: HEK293-RXFP1, relaxin-stimulated cAMP HTRF, 30 min; at 57.5 µM; active compounds read low
% is set by controls: 0 for no effect and ±100 for the full control effect.

UniProt Q9HBX9, sequence (Q9HBX9 whole entry, looked up): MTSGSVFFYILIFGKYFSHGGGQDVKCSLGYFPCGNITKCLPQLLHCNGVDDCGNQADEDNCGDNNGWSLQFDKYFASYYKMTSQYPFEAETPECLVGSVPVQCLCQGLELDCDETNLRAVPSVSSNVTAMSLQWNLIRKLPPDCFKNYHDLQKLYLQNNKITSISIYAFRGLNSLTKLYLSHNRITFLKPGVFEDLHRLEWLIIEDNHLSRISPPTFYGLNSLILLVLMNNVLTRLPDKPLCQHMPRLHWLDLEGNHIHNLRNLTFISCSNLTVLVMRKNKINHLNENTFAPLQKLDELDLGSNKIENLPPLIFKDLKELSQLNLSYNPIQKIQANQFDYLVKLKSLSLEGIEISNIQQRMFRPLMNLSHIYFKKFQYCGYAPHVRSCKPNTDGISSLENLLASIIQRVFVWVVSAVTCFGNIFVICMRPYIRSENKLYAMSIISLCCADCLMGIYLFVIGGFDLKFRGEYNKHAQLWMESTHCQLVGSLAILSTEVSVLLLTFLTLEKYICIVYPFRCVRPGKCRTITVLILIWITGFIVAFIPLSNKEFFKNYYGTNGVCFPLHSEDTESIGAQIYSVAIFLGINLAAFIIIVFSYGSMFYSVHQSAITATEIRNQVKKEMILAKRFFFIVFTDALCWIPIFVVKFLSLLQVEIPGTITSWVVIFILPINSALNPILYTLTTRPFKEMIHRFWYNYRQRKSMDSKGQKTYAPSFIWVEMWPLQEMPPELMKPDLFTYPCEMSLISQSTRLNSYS

| Structure (SMILES) | activity change, negative = inhibition |
| --- | --- |
| Cc1cc(=O)n2[nH]c(-c3ccc(Cl)cc3)cc2n1 | inactive: -1.87% |
| COc1ccc2[nH]c3c(=O)n(Cc4ccc(C(=O)N5CCCCCC5)cc4)c(=S)[nH]c3c2c1 | inactive: -26% |
| COc1ccc(NC(=S)NC(NC(=O)c2cccc(Cl)c2)C(Cl)(Cl)Cl)c([N+](=O)[O-])c1 (stereo not given) | inactive: -11.1% |
| COc1cccc(NC(=O)CCc2nc(-c3ccccc3F)no2)c1 | inactive: -3.76% |
| O=C(/C=C/c1ccco1)Nc1ccccc1C(=O)O | inconclusive: -50.3% |
| Oc1cc(-c2ccccc2)c2ccccc2c1 | inconclusive: -41.2% |
| CCn1c2ccccc2c2cc(CN3CCN(Cc4ccc(OC)c(OC)c4)CC3)ccc21 | inactive: 6.78% |
| COc1ccc(NS(=O)(=O)c2ccc3oc(SCc4ccc(F)cc4)nc3c2)cc1 | inactive: 3.96% |
| CCCCCCCCCCCCCCCC[n+]1cccc2ccccc21 | inconclusive: -42.5% |
| c1ccc(CSc2nnc(-c3ccco3)c(-c3ccco3)n2)cc1 | inconclusive: -44.5% |
| CCCn1c(=O)c2ccccc2n2c(Sc3nnnn3-c3ccccc3)nnc12 | inactive: -4.47% |
| COc1cc(/C=N/NC(=O)c2cccnc2)ccc1OC(=O)c1cccc(Br)c1 | inconclusive: -42% |
| Cc1nn2c(N3CCN(C)CC3)cc(C(C)(C)C)nc2c1-c1ccccc1 | inconclusive: -52% |
| CC(C)N(Cc1ccccc1)C(=O)c1cc2ccc3cccnc3c2[nH]1 | active: -101% |
| CC(=NN=C(C)c1ccc(O)cc1)c1ccc(O)cc1 | inconclusive: -48.4% |
| CN(C)c1ccc(CN2CCc3nc(N4CCN(c5ccccn5)CC4)ncc3C2)cc1 | active: -62.7% |
| Cc1ccc(-n2cc3c(-c4cccc(Br)c4)nnc(C)c3n2)cc1 | inactive: -12% |
| COc1cc(N2C(=O)C=CC2=O)c(OC)cc1Cl | inconclusive: -40.1% |
| O=C(O)CCc1nn2c3ccccc3n(CC(=O)c3cccs3)c2nc1=O | inactive: 2.68% |
| Cc1ccc(C2CC(=O)N(Cc3ccccc3F)c3c2c(C)nn3-c2nc(C)cc(C)n2)cc1 (stereo not given) | inactive: -2.54% |
| O=C(NC(=S)Nn1cnc2c(cnn2-c2ccccc2)c1=O)c1ccc(Cl)cc1 | active: -72.3% |
| CC1Cc2nc(SCC(=O)NCC3CCCO3)n(C)c(=O)c2S1 (stereo not given) | inactive: 2.32% |
| CN1CCN(C2Cc3ccc(Cl)cc3Sc3ccc(F)cc32)CC1 (stereo not given) | inconclusive: -45.9% |
| CN(C)C(=O)/C(C#N)=C\c1cc(Br)c(Sc2ccc(Cl)cc2)o1 | inconclusive: -55.6% |
| CC(C)CCC(O)(c1ccccc1)C(CN1CCOCC1)c1ccccc1 (stereo not given) | active: -80.3% |
